{"source": "paper PMC4575093", "binders": {"B1": {"name": "POR-FLAG, in vitro transcribed and translated (enzyme, UniProt P37040 1-678)", "chain": "MGDSHEDTSATVPEAVAEEVSLFSTTDIVLFSLIVGVLTYWFIFKKKKEEIPEFSKIQTTAPPVKESSFVEKMKKTGRNIIVFYGSQTGTAEEFANRLSKDAHRYGMRGMSADPEEYDLADLSSLPEIDKSLVVFCMATYGEGDPTDNAQDFYDWLQETDVDLTGVKFAVFGLGNKTYEHFNAMGKYVDQRLEQLGAQRIFELGLGDDDGNLEEDFITWREQFWPAVCEFFGVEATGEESSIRQYELVVHEDMDTAKVYTGEMGRLKSYENQKPPFDAKNPFLAAVTTNRKLNQGTERHLMHLELDISDSKIRYESGDHVAVYPANDSTLVNQIGEILGADLDVIMSLNNLDEESNKKHPFPCPTTYRTALTYYLDITNPPRTNVLYELAQYASEPSEQEHLHKMASSSGEGKELYLSWVVEARRHILAILQDYPSLRPPIDHLCELLPRLQARYYSIASSSKVHPNSVHICAVAVEYEAKSGRVNKGVATSWLRTKEPAGENGRRALVPMFVRKSQFRLPFKPTTPVIMVGPGTGVAPFMGFIQERAWLREQGKEVGETLLYYGCRRSDEDYLYREELARFHKDGALTQLNVAFSREQAHKVYVQHLLKRDKEHLWKLIHEGGAHIYVCGDARNMAKDVQNTFYDIVAEFGPMEHTQAVDYVKKLMTKGRYSLDVWS"}, "B2": {"name": "H-rev107-myc (protein, UniProt Q8R3U1 1-162)", "chain": "MLAPIPEPKPGDLIEIFRPMYRHWAIYVGDGYVIHLAPPSEIAGAGAASIMSALTDKAIVKKELLCHVAGKDKYQVNNKHDEEYTPLPLSKIIQRAERLVGQEVLYRLTSENCEHFVNELRYGVPRSDQVRDAVKAVGIAGVGLAALGLVGVMLSRNKKQKQ"}, "B3": {"name": "POR-Flag (enzyme, UniProt P37040 1-678)", "chain": "MGDSHEDTSATVPEAVAEEVSLFSTTDIVLFSLIVGVLTYWFIFKKKKEEIPEFSKIQTTAPPVKESSFVEKMKKTGRNIIVFYGSQTGTAEEFANRLSKDAHRYGMRGMSADPEEYDLADLSSLPEIDKSLVVFCMATYGEGDPTDNAQDFYDWLQETDVDLTGVKFAVFGLGNKTYEHFNAMGKYVDQRLEQLGAQRIFELGLGDDDGNLEEDFITWREQFWPAVCEFFGVEATGEESSIRQYELVVHEDMDTAKVYTGEMGRLKSYENQKPPFDAKNPFLAAVTTNRKLNQGTERHLMHLELDISDSKIRYESGDHVAVYPANDSTLVNQIGEILGADLDVIMSLNNLDEESNKKHPFPCPTTYRTALTYYLDITNPPRTNVLYELAQYASEPSEQEHLHKMASSSGEGKELYLSWVVEARRHILAILQDYPSLRPPIDHLCELLPRLQARYYSIASSSKVHPNSVHICAVAVEYEAKSGRVNKGVATSWLRTKEPAGENGRRALVPMFVRKSQFRLPFKPTTPVIMVGPGTGVAPFMGFIQERAWLREQGKEVGETLLYYGCRRSDEDYLYREELARFHKDGALTQLNVAFSREQAHKVYVQHLLKRDKEHLWKLIHEGGAHIYVCGDARNMAKDVQNTFYDIVAEFGPMEHTQAVDYVKKLMTKGRYSLDVWS"}, "B4": {"name": "H-rev107 H23L (myc-tagged) (protein, UniProt Q8R3U1 1-162)", "chain": "MLAPIPEPKPGDLIEIFRPMYRLWAIYVGDGYVIHLAPPSEIAGAGAASIMSALTDKAIVKKELLCHVAGKDKYQVNNKHDEEYTPLPLSKIIQRAERLVGQEVLYRLTSENCEHFVNELRYGVPRSDQVRDAVKAVGIAGVGLAALGLVGVMLSRNKKQKQ"}, "B5": {"name": "H-rev107 C113S (myc-tagged) (protein, UniProt Q8R3U1 1-162)", "chain": "MLAPIPEPKPGDLIEIFRPMYRHWAIYVGDGYVIHLAPPSEIAGAGAASIMSALTDKAIVKKELLCHVAGKDKYQVNNKHDEEYTPLPLSKIIQRAERLVGQEVLYRLTSENSEHFVNELRYGVPRSDQVRDAVKAVGIAGVGLAALGLVGVMLSRNKKQKQ"}, "B6": {"name": "endogenous H-rev107 (Huh7 cells) (protein, UniProt P53816 1-162)", "chain": "MRAPIPEPKPGDLIEIFRPFYRHWAIYVGDGYVVHLAPPSEVAGAGAASVMSALTDKAIVKKELLYDVAGSDKYQVNNKHDDKYSPLPCSKIIQRAEELVGQEVLYKLTSENCEHFVNELRYGVARSDQVRDVIIAASVAGMGLAAMSLIGVMFSRNKRQKQ"}, "B7": {"name": "endogenous POR (Huh7 cells) (enzyme, UniProt P16435 1-677)", "chain": "MGDSHVDTSSTVSEAVAEEVSLFSMTDMILFSLIVGLLTYWFLFRKKKEEVPEFTKIQTLTSSVRESSFVEKMKKTGRNIIVFYGSQTGTAEEFANRLSKDAHRYGMRGMSADPEEYDLADLSSLPEIDNALVVFCMATYGEGDPTDNAQDFYDWLQETDVDLSGVKFAVFGLGNKTYEHFNAMGKYVDKRLEQLGAQRIFELGLGDDDGNLEEDFITWREQFWPAVCEHFGVEATGEESSIRQYELVVHTDIDAAKVYMGEMGRLKSYENQKPPFDAKNPFLAAVTTNRKLNQGTERHLMHLELDISDSKIRYESGDHVAVYPANDSALVNQLGKILGADLDVVMSLNNLDEESNKKHPFPCPTSYRTALTYYLDITNPPRTNVLYELAQYASEPSEQELLRKMASSSGEGKELYLSWVVEARRHILAILQDCPSLRPPIDHLCELLPRLQARYYSIASSSKVHPNSVHICAVVVEYETKAGRINKGVATNWLRAKEPAGENGGRALVPMFVRKSQFRLPFKATTPVIMVGPGTGVAPFIGFIQERAWLRQQGKEVGETLLYYGCRRSDEDYLYREELAQFHRDGALTQLNVAFSREQSHKVYVQHLLKQDREHLWKLIEGGAHIYVCGDARNMARDVQNTFYDIVAELGAMEHAQAVDYIKKLMTKGRYSLDVWS"}}, "key": {"GST-H-rev107_(1–132)": {"molecular_target": "T1, GST-H-rev107_(1–132) (UniProt Q8R3U1)", "T1 sequence": "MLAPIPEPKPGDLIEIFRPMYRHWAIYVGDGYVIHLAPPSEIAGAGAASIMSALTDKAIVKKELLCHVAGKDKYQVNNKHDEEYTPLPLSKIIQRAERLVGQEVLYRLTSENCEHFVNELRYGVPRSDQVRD", "test": "pull-down; purified GST fusion (10 μg GST-POR deletions; GST-H-rev107 deletion variants) as bait, partner in vitro transcribed and translated; 4°C for 2 h in 50 mM HEPES pH 7.4, 150 mM NaCl, 1 mM EDTA, 1 mM EGTA, 10% glycerol, 1% Triton X-100; western blot with anti-FLAG or anti-MYC; only the target purified"}, "GST-H-rev107_(1–48)": {"molecular_target": "T2, GST-H-rev107_(1–48) (UniProt Q8R3U1)", "T2 sequence": "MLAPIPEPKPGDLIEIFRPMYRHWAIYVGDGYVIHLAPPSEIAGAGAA", "test": "pull-down; purified GST fusion (10 μg GST-POR deletions; GST-H-rev107 deletion variants) as bait, partner in vitro transcribed and translated; 4°C for 2 h in 50 mM HEPES pH 7.4, 150 mM NaCl, 1 mM EDTA, 1 mM EGTA, 10% glycerol, 1% Triton X-100; western blot with anti-FLAG or anti-MYC; only the target purified"}, "GST-H-rev107": {"molecular_target": "T3, GST-H-rev107 (UniProt Q8R3U1)", "T3 sequence": "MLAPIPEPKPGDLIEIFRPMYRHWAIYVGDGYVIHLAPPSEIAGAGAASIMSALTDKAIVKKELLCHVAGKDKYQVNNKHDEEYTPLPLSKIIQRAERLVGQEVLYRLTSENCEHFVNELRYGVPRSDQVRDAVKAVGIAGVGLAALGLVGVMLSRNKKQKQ", "test": "pull-down; purified GST fusion (10 μg GST-POR deletions; GST-H-rev107 deletion variants) as bait, partner in vitro transcribed and translated; 4°C for 2 h in 50 mM HEPES pH 7.4, 150 mM NaCl, 1 mM EDTA, 1 mM EGTA, 10% glycerol, 1% Triton X-100; western blot with anti-FLAG or anti-MYC; only the target purified"}, "POR-Flag (mouse)": {"molecular_target": "T4, POR-Flag (mouse) (UniProt P37040)", "T4 sequence": "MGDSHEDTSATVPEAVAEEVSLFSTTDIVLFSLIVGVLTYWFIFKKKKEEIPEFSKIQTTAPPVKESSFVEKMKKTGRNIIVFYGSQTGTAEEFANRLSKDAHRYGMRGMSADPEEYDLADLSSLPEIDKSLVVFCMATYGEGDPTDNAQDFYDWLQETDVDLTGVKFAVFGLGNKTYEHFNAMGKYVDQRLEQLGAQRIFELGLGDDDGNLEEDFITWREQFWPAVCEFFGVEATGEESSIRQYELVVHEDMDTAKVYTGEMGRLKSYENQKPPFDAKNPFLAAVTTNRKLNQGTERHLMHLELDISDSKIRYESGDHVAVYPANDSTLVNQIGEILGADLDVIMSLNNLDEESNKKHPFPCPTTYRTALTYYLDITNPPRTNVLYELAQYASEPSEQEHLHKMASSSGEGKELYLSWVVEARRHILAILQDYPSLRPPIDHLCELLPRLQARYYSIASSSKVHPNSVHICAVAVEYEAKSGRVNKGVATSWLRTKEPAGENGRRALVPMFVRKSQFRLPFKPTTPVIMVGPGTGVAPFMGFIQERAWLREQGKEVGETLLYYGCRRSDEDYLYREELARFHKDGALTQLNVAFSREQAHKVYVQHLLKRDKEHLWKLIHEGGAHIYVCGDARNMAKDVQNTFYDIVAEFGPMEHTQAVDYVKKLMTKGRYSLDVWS", "test": "co-IP; HtTA cells co-transfected with H-rev107-myc (wild type or point mutant) and POR-Flag for 24 h; modified RIPA lysate (500 μg protein); anti-MYC or anti-FLAG antibody, protein G plus/protein A agarose, 4°C; western blot with anti-FLAG or anti-MYC"}, "H-rev107-myc": {"molecular_target": "T5, H-rev107-myc (UniProt Q8R3U1)", "T5 sequence": "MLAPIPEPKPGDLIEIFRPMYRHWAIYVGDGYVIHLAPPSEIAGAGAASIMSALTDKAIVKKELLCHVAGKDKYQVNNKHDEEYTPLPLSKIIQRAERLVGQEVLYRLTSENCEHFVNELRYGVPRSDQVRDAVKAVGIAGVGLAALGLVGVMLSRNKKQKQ", "test": "co-IP; HtTA cells co-transfected with H-rev107-myc (wild type or point mutant) and POR-Flag for 24 h; modified RIPA lysate (500 μg protein); anti-MYC or anti-FLAG antibody, protein G plus/protein A agarose, 4°C; western blot with anti-FLAG or anti-MYC"}, "[1]": {"molecular_target": "T6, endogenous POR (Huh7 cells) (human (endogenous in Huh7)) (UniProt P16435)", "T6 sequence": "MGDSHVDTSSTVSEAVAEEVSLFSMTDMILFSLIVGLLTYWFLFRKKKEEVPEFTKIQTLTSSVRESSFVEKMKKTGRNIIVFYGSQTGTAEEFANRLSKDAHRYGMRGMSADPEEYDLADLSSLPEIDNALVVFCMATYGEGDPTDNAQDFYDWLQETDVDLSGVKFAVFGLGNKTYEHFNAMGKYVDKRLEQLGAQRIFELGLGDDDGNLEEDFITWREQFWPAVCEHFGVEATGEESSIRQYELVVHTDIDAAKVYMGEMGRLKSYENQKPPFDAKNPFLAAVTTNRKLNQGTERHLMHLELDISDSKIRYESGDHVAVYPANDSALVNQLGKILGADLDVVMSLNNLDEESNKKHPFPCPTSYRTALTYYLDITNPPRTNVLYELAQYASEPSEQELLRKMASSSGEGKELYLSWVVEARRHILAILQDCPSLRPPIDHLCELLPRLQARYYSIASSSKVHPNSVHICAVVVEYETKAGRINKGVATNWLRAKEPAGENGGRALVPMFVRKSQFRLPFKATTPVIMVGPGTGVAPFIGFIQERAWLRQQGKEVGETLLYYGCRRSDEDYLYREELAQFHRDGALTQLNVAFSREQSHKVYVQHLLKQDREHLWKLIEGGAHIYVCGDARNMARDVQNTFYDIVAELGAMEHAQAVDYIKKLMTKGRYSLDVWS", "test": "co-IP; endogenous proteins, Huh7 lysate (5 mg protein); anti-H-rev107 or anti-POR antibody (normal rabbit IgG as control) 12 h at 4°C, protein G plus/protein A agarose; western blot"}, "[2]": {"molecular_target": "T7, endogenous H-rev107 (Huh7 cells) (human (endogenous in Huh7)) (UniProt P53816)", "T7 sequence": "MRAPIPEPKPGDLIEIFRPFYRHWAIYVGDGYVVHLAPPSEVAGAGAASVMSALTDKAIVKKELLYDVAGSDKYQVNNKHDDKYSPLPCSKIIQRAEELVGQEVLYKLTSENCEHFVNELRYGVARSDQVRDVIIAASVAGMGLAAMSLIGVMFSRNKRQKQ", "test": "co-IP; endogenous proteins, Huh7 lysate (5 mg protein); anti-H-rev107 or anti-POR antibody (normal rabbit IgG as control) 12 h at 4°C, protein G plus/protein A agarose; western blot"}}, "note": "No constants are given. Whether binding was seen depends on the method and setting. In cells and extracts the contact can be indirect. Some entries that bind do so weakly or less than the wild type. For part of these data: Tags and fused reporters may be left off the sequences shown."}
{"binder": "B1", "values": [{"measurement": "binding", "setting": "GST-H-rev107_(1–132)", "value": "binds"}, {"measurement": "binding", "setting": "GST-H-rev107_(1–48)", "value": "no binding"}, {"measurement": "binding", "setting": "GST-H-rev107", "value": "binds"}]}
{"binder": "B2", "values": [{"measurement": "binding", "setting": "POR-Flag (mouse)", "value": "binds"}]}
{"binder": "B3", "values": [{"measurement": "binding", "setting": "H-rev107-myc", "value": "binds"}]}
{"binder": "B4", "values": [{"measurement": "binding", "setting": "POR-Flag (mouse)", "value": "binds"}]}
{"binder": "B5", "values": [{"measurement": "binding", "setting": "POR-Flag (mouse)", "value": "binds"}]}
{"binder": "B6", "values": [{"measurement": "binding", "setting": "[1]", "value": "binds"}]}
{"binder": "B7", "values": [{"measurement": "binding", "setting": "[2]", "value": "binds"}]}
